This is an account of results in paper PMC4336329 (PLoS ONE, 2015).

SMILES strings stand for the structures. About 2,200 (0.71%) of roughly 310,000 compounds showed an effect of 50% or more. The effect is printed as a negative number. The list shows a part of the results.

For this test, the target named is human ether-à-go-go-related gene (hERG) potassium channel (human, UniProt Q12809). Nature of the test: primary screen, population patch clamp on CHO cells stably expressing hERG.
human ether-à-go-go-related gene (hERG) potassium channel, sequence (Q12809 whole entry, looked up): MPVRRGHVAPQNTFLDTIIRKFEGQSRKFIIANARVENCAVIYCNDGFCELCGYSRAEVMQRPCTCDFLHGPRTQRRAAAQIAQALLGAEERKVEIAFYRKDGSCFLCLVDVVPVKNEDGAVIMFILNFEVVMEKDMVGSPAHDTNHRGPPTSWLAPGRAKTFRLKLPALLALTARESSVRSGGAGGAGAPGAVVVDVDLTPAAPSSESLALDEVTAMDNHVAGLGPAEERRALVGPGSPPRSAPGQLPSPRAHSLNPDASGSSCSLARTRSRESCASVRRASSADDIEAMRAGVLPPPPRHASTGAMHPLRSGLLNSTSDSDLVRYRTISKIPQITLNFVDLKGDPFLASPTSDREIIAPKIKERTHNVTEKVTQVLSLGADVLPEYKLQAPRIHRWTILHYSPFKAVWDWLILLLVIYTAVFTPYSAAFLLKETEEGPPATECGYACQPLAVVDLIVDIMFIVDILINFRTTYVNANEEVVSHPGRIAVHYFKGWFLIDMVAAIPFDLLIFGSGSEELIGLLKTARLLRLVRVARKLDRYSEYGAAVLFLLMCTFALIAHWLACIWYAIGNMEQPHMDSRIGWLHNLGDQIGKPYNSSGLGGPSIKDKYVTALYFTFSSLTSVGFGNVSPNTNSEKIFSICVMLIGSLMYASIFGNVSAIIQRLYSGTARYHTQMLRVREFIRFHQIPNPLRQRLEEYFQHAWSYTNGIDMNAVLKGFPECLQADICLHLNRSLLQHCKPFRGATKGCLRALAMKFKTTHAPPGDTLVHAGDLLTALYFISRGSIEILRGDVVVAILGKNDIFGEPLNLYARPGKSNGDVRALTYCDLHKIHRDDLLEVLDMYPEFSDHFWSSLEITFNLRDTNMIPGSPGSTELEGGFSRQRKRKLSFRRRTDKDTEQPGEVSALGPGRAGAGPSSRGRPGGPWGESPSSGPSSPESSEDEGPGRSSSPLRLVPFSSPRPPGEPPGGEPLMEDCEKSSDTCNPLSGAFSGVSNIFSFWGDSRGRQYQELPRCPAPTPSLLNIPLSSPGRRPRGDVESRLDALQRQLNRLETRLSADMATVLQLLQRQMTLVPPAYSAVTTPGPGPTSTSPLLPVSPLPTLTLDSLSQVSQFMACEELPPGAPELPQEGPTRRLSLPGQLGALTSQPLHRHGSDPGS
Consider `CCOC(=O)c1c(C)nc2sc3c(=O)n(-c4ccc(C(C)=O)cc4)nnc3c2c1-c1ccc(Cl)cc1`, for which the “hERG current change (%, negative = inhibition) at 1uM” value was 3.19%.

As to `CN1C(=O)c2ccccc2NC(=O)[C@]12O[C@@H]2c1cccc(O)c1`, the “hERG current change (%, negative = inhibition) at 1uM” value worked out at 10.6%. For `COc1cc(C(=O)OCC(=O)Nc2ccc(C(C)=O)cc2)ccc1OCC(=O)N1CCOCC1` the value was 13%; for `CCOC(=O)CN(C(=O)CSc1nnc2c(n1)[nH]c1ccc(OC)cc12)c1ccc(F)cc1`, -8.26%.

Turning to `COc1ccc(-c2nnc(SCC(=O)Nc3ccc(C(=O)O)cc3)n2-c2ccc(Cl)cc2)cc1`, the “hERG current change (%, negative = inhibition) at 1uM” value amounted to 13.4%. For `COCCN1Cc2cccc(C(=O)Nc3ccc(S(=O)(=O)N4CCOCC4)cc3)c2C1=O` the value was 2.25%; for `Cc1cc(C)c2nc(N3CCC(C(=O)N4CCN(c5ncccn5)CC4)CC3)sc2c1`, 6.68%; for `O=C1S/C(=C/c2ccccc2F)C(=O)N1CCN=C1NS(=O)(=O)c2ccccc21`, 12.3%. As to `CCN(CC(=O)Nc1ccc(NC(C)=O)cc1)C(=O)CN1C(=O)C2CCCCC2C1=O` (centres unmarked), the “hERG current change (%, negative = inhibition) at 1uM” value stood at 12.4%. In the case of `O=[N+]([O-])c1ccc(/C=C/C2=NN(c3ccccc3)C(c3ccco3)C2)cc1` (centres unmarked) it was 18%; in that of `Cc1nn(Cc2ccccc2)c(C)c1NC(=O)c1cc2nc(-c3ccco3)cc(C(F)(F)F)n2n1`, 4.45%; in that of `COc1ccc(CN2C(=O)c3cccnc3C2=O)cc1S(=O)(=O)NC(C)C`, 12.4%. In the case of `CCCc1nc2ccccc2n1Cc1ccccc1OC` it was 3.43%.

As for `COCC(=O)N(Cc1ccco1)c1nnc(C2CCOC2)s1` (centres unmarked), the “hERG current change (%, negative = inhibition) at 1uM” value stood at 13.1%. Consider `COC(=O)C1=C(C)NC(=O)CC1c1ccccc1` (centres unmarked), for which the “hERG current change (%, negative = inhibition) at 1uM” value is listed as 2.82%.

Take `CCN(CC)C(=O)COc1ccc(-c2nnc(Nc3ccc(OC)c(C(=O)NC)c3)c3ccccc23)cc1`: the “hERG current change (%, negative = inhibition) at 1uM” value is 16.6%. In the case of `CN(C)S(=O)(=O)c1ccc2c(c1)C(CC(=O)O)OC2=O` (centres unmarked) it was 6.19%; in that of `Cc1ccc2nc(SCC(=O)Nc3ccc(F)cc3F)nc(=O)n2c1`, 9.6%; in that of `CCN(CC(=O)NCc1ccc(Cl)cc1)CC(=O)NC1(C#N)CCCC1`, 1.74%. In the case of `N#CCSc1nnc(-c2ccccc2O)n1CCc1ccccc1` it was -0.36%; in that of `CC(C)C(c1nnnn1C1CCCC1)N1CCN(c2ccccc2F)CC1` (centres unmarked), 3.13%. In the case of `COc1ccc(CCNc2cc(C)nc3c(-c4ccccc4)c(C)nn23)cc1OC` it was 11.2%; in that of `Cn1cc(Br)c(C(=O)Nc2ncc(Br)s2)n1`, 16.4%; in that of `Cl.Nc1nc(N)c2[nH]c(-c3ccccc3)nc2n1`, 9.97%. Consider `Cc1nn(Cc2ccccc2)c(Cl)c1C(=O)OCC(=O)NCC1CCCO1` (centres unmarked), for which the “hERG current change (%, negative = inhibition) at 1uM” value worked out at 0.919%. For `COc1ccc(CN2CCNC(=O)C2CC(=O)NC2CCC2)c(OC)c1` (centres unmarked) the value was 6.48%.

For the compound `CCn1c(SCc2ccccc2)nc2cc(S(N)(=O)=O)ccc21`, the “hERG current change (%, negative = inhibition) at 1uM” value came to 12.4%. For `CCOC(=O)N/N=C(\C)c1ccc(Br)cc1` the value was 3.72%; for `N#Cc1ccsc1NC(=O)c1cccc(-n2cnnn2)c1`, 7.88%. Regarding `Cc1cccc(NC(=O)c2ccc(N3CCOCC3)c([N+](=O)[O-])c2)n1`, the “hERG current change (%, negative = inhibition) at 1uM” value is on record as -24.9%. For `Nn1c(SCC(=O)Nc2ccccc2C(F)(F)F)nncc1=O` the value was 18.5%.

`Cc1ccc(CNC(=O)c2cc(-c3ccccc3)n(Cc3cc(C)no3)n2)cc1`: the “hERG current change (%, negative = inhibition) at 1uM” value is 2.62%. On to `CCOC(=O)C(C)Sc1ncc(-c2ccccc2)cn1` (centres unmarked), for which the “hERG current change (%, negative = inhibition) at 1uM” value is recorded as 6.67%. In the case of `CCN1/C(=C2/SC(=S)NC2=O)Sc2ccccc21` it was 18.1%. For `CCOC(=O)C(C(=O)Nc1cccc(C)c1)C1CCCCC1` (centres unmarked), the “hERG current change (%, negative = inhibition) at 1uM” value is listed as 7.27%. In the case of `Cc1ccc(-c2nn[nH]n2)o1` it was 14.7%; in that of `Cc1cc(Oc2ccc(-c3ccccc3)cc2)nc(N2CCOCC2)n1`, 2.61%; in that of `C[C@@H]1CC=C[C@H]2[C@H]1C(=O)N(Cc1ccccc1)[C@H]2c1ccc(Br)cc1F`, 15.8%.

As for `COc1cccc(NC(=O)CSc2nc(=O)n(Cc3ccncc3)c3c2CCCC3)c1`, the “hERG current change (%, negative = inhibition) at 1uM” value stood at 9.08%. For `CCCS(=O)(=O)N1CCC(C(=O)NCCc2ccc(OC)c(OC)c2)CC1` the value was 13%; for `COC(=O)C1=C(c2ccccc2)C[C@@H]2CC[C@H]1N2C(=O)NCc1ccco1`, 8.99%; for `O=C(CN1C(=O)NC2(CCc3ccccc32)C1=O)Nc1cc(C(F)(F)F)ccc1N1CCOCC1` (centres unmarked), 12.6%. In the case of `NC(=O)c1csc(-c2ccncc2)n1` it was 8.8%; in that of `Cc1cc(C)cc(C(=O)NCC(=O)OCC(=O)N(C)c2ccccc2)c1`, 4.09%; in that of `CCCOC(=O)C1C2C=CC3(CN(c4cccc(Cl)c4)C(=O)C13)O2` (centres unmarked), 4.04%. As for `COC(=O)c1c(C(=O)OC)c(-c2cccc(F)c2)n2c1CS(=O)C2` (centres unmarked), the “hERG current change (%, negative = inhibition) at 1uM” value stood at 9.76%. For `O=C1NC[C@@H](Cc2cccc3ccccc23)N(CCC23CC4CC(CC(C4)C2)C3)C1=O` the value was 17.7%. With `CC(=O)Nc1ccc(NC(=O)CCc2ccc(C)o2)cc1`, the “hERG current change (%, negative = inhibition) at 1uM” value stood at 12.6%. With `Nc1nc2c(nc(SCc3ccccc3Br)n2[C@@H]2O[C@H](CO)[C@@H](O)[C@H]2O)c(=O)[nH]1`, the “hERG current change (%, negative = inhibition) at 1uM” value was 9.84%.

With `C/C(=N\Nc1c(F)c(F)c(Br)c(F)c1F)c1ccncc1`, the “hERG current change (%, negative = inhibition) at 1uM” value is reported as 14.8%. In the case of `Nc1ccn([C@H]2CS[C@@H](CO)O2)c(=O)n1` it was 8.85%; in that of `Cc1ccccc1CNC(=O)CN(c1ccccc1Cl)S(C)(=O)=O`, 2%; in that of `COc1cc(NC(=O)C(C)Oc2ccccc2)c(OC)cc1NC(=O)c1ccccc1` (centres unmarked), 13.2%. For `C[C@H](NC(=O)c1ccc(Br)cc1)C(=O)NCc1ccc(S(N)(=O)=O)cc1` the value was 14.5%; for `NC(=O)NC(=O)COC(=O)CCCc1c[nH]c2ccccc12`, 9.26%; for `Cn1c(SCC(=O)Nc2ccc3c(c2)n(C)c(=O)n3C)nnc1-c1ccncc1`, 42.3%.

As to `CS(=O)(=O)N(CCc1ccccc1)CC(=O)N1CCN(c2ccccc2)CC1`, the “hERG current change (%, negative = inhibition) at 1uM” value is reported as 17.7%. On to `COc1cc(N)cc(NC(=O)c2ccncc2)c1`, for which the “hERG current change (%, negative = inhibition) at 1uM” value turned out to be 15%. For `CCCCc1nnc(NC(=O)CSc2nc(=O)cc(N)n2-c2ccccc2)s1` the value was -6.56%. With `Cc1cc(NC(=O)CCN2C(=O)C3C4C=CC(C4)C3C2=O)c2ccccc2n1` (centres unmarked), the “hERG current change (%, negative = inhibition) at 1uM” value turned out to be 13.6%.

As to `CC1=C(C(=O)Nc2ccccc2)C(c2coc3ccccc3c2=O)C2=C(CCCC2=O)N1` (centres unmarked), the “hERG current change (%, negative = inhibition) at 1uM” value turned out to be 10.3%.

Turning to `O=C(O)C1CCCN(S(=O)(=O)c2ccc(Br)cc2)C1` (centres unmarked), the “hERG current change (%, negative = inhibition) at 1uM” value was -4.56%. In the case of `CCCCn1c(N)c(N(CCOC)C(=O)c2ccc(Br)o2)c(=O)[nH]c1=O`, the “hERG current change (%, negative = inhibition) at 1uM” value is 19.5%. For `Cc1ccc(NC2=NC(c3ccccc3)n3c(nc(C)cc3=O)N2)c(C)c1` (centres unmarked) the value was -2.18%; for `N#Cc1ccc(OCC(=O)NC(=O)NC2CCS(=O)(=O)C2)cc1` (centres unmarked), 0.467%. In the case of `Cc1ccccc1C(=O)NN1CCOCC1` it was 3.43%; in that of `Cc1ccc(F)cc1NC(=O)c1cnccn1`, -1.23%. In the case of `COc1cc(C)c(Cl)cc1S(=O)(=O)NCC1CCCO1` (centres unmarked) it was 12.4%. `O=S(=O)(/N=C(/Nc1ccccc1)c1ccccc1O)c1ccccc1`: the “hERG current change (%, negative = inhibition) at 1uM” value is on record as 4.76%.

With `O=S(=O)(Cc1nnnn1-c1ccccc1)c1ccccc1`, the “hERG current change (%, negative = inhibition) at 1uM” value amounted to 10.9%. As to `Nc1c(N(CCC2=CCCCC2)C(=O)c2ccccc2F)c(=O)[nH]c(=O)n1Cc1ccccc1`, the “hERG current change (%, negative = inhibition) at 1uM” value came to 6.84%. In the case of `O=C(NCCO)c1ccc(Cl)c(Cl)c1` it was 8.39%; in that of `c1ccc(C[C@H]2CNCCN2CCc2cccc3ccccc23)cc1`, 4.66%; in that of `Cc1cccc(C)c1OCC(=O)Nc1ccc(N2CCOCC2)cc1`, 7.29%.

Take `CCOc1ccc(N(CC(=O)N2CCCCCC2)S(=O)(=O)c2ccc(F)cc2)cc1`: the “hERG current change (%, negative = inhibition) at 1uM” value is on record as -15%. In the case of `CCN(Cc1ccccc1)C(=O)Cn1c(=O)n(-c2ccc(OC)cc2OC)c(=O)c2c(C)c(C)sc21` it was 3.19%.

As for `Cc1oc(-c2ccccc2F)nc1CS(=O)(=O)CC(=O)NC1CCCC1`, the “hERG current change (%, negative = inhibition) at 1uM” value turned out to be 7.68%.

Regarding `COC(=O)c1c(C)oc2ccc(OC(=O)N3CCOCC3)cc12`, the “hERG current change (%, negative = inhibition) at 1uM” value is 11.1%. For `Cc1ccnc(SCc2cn3c(C)cc(C)nc3n2)n1` the value was 4.64%; for `CCCCn1c(O)c(C(C)=NCc2cccnc2)c(=O)[nH]c1=O`, 5.18%. As to `CC(=O)Nc1ccc(/C(C)=N/Nc2nc(Nc3cccc4ccccc34)nc(N3CCOCC3)n2)cc1.CCO`, the “hERG current change (%, negative = inhibition) at 1uM” value is 11.9%.

`CC(=O)c1cnn(-c2cc(Oc3cccc(C)c3)ncn2)c1C`: the “hERG current change (%, negative = inhibition) at 1uM” value is reported as 16%. Take `COc1ccccc1NC(=O)Cc1nnc(SCC(=O)NC2CCCC2)n1C`: the “hERG current change (%, negative = inhibition) at 1uM” value turned out to be 12.6%. For `CCOC(=O)N1CCN(C(=O)c2nn(-c3ccc(C)cc3)c(=O)c3c2c2ccccc2n3C)CC1` the value was 9.14%. For `CCOCCOC(=O)c1[nH]c2c(c1C)C(=O)CC(c1cc(OC)c(OC)c(OC)c1)C2` (centres unmarked) the value was -2.15%; for `COc1ccc(OC)c(C(=O)NC(CC(N)=O)c2ccc(N3CCN(c4ccccc4)CC3)c([N+](=O)[O-])c2)c1` (centres unmarked), 17.1%.
